Data as given in PubChem BioAssay AID588855 (National Center for Advancing Translational Sciences (NCATS), 2011).
About 5,000 (1.2%) of roughly 410,000 compounds were called active. Inconclusive means that the source gave no clear call. Such entries were picked first, then a sample of the others. Calls follow the shape of the dose curve; as a rule, active = well fitted inhibition curve with a large enough effect; inconclusive = small, poorly fitted or top-dose-only effect; inactive = no such curve, though single readings can be large or run the other way. A potency beside an inconclusive call is a rough fit, not a confirmed value.

test: qHTS for Inhibitors of TGF-b; details: HepG2 CAGA-GFP TGF-b/SMAD3 reporter, GFP fluorescence, 18 h, TGF-beta stimulated, 500 pg/mL final; series mostly up to 46.1 µM; also: nearly all actives have a fitted effect of over 65% in size
Procedure, shortened: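 Inhibition of TGF-beta-driven CAGA-GFP reporter expression in HEPG2 cells is measured by cellular GFP fluorescence after 18 h stimulation with 500 pg/mL recombinant TGF-beta in 1% FBS medium at 37 degrees C.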
Potency is read from the fitted curve at half-maximal effect; tags tell the direction and shape of the fitted curve.

Q: Which Potency does the source give for `CCOc1ccc(N(C(=O)CNS(=O)(=O)c2ccccc2)C(CC)C(=O)NCc2ccco2)cc1` (stereo unspecified) here?
A: inactive

Q: With `COc1ccc2[nH]c3c(c2c1)CCN1C(=O)C(CC(=O)NCCC2=CCCCC2)C[C@H](C(=O)N2CCCCC2)[C@@]31C` (stereo partly specified) as the compound, how does the Potency read?
A: active: 7.94 µM

Q: For `C/C(=N\NC(=S)NC(C)C)c1ccc2c(c1)OCCO2`, which Potency is on record?
A: inconclusive: 35.5 µM [inhibitor, single point]

Q: With `CN(C)c1ccc(/C=C/c2ccnc3ccccc23)c(N)c1` as the compound, how does the Potency read?
A: inconclusive: 0.178 µM [inhibitor, full curve, poor fit]

Q: For `CC1=Nc2cc(C(=O)NCC3CCCO3)ccc2Sc2ccc(Br)cc21` (stereo unspecified), which Potency is on record?
A: inconclusive: 3.55 µM [inhibitor, single point]

Q: With `C[C@@H]([C@@H](O)c1ccccc1)N(C)C(=O)C(N)Cc1ccccc1` (stereo partly specified) as the compound, how does the Potency read?
A: inconclusive: 6.31 µM [inhibitor, single point]

Q: With `COc1ccc(CCN2CCC(Nc3nc4ccccc4n3Cc3ccc(F)cc3)CC2)cc1` as the compound, how does the Potency read?
A: inconclusive: 35.5 µM [inhibitor, single point]

Q: Which Potency does the source give for `CN(C)C(=O)c1ccc(NC(=O)c2cccc(S(=O)(=O)N3CCCCCC3)c2)cc1` here?
A: inactive

Q: With `CC(=O)Nc1cc(OC(C)=O)c2nonc2c1OC(C)=O` as the compound, how does the Potency read?
A: active: 2.82 µM

Q: For `Cc1cc(NC(=O)c2ccccc2C)ccc1NC(=O)c1ccccc1Cl`, which Potency is on record?
A: inactive

Q: Which Potency does the source give for `O=C(COc1ccccc1Cl)Nc1ccc(NC(=O)c2ccco2)cc1` here?
A: inactive

Q: Which Potency does the source give for `Cc1ccsc1C(=O)N1CCCC(CCC(=O)N2CCN(c3ccccn3)CC2)C1` (stereo unspecified) here?
A: inconclusive: 35.5 µM [inhibitor, single point]

Q: With `COc1ccc(S(=O)(=O)N2CCOCC2)cc1NC(=O)Cc1cccs1` as the compound, how does the Potency read?
A: inactive

Q: For `CCOC(=O)C(C)Oc1cccc2c(=O)n(CC(=O)NCc3ccccc3)ccc12` (stereo unspecified), which Potency is on record?
A: inconclusive: 14.1 µM [inhibitor, partial curve, poor fit]

Q: For `CC1CCN(C(=O)CCc2ccc(S(=O)(=O)NC(C)C)cc2)CC1`, which Potency is on record?
A: inactive

Q: With `COc1cc(CNC(=O)Nc2nc(C(N)CCc3ccccc3)cs2)cc(OC)c1OC` (stereo unspecified) as the compound, how does the Potency read?
A: inconclusive: 35.5 µM [inhibitor, single point]

Q: With `Cc1cc2c(N=O)c(NO)ccc2[nH]1` as the compound, how does the Potency read?
A: inconclusive: 11.2 µM [inhibitor, partial curve, poor fit]

Q: With `NS(=O)(=O)c1ccc(N/N=C/c2cn(-c3ccccc3)nc2-c2cccs2)c([N+](=O)[O-])c1` as the compound, how does the Potency read?
A: inconclusive: 22.4 µM [inhibitor, partial curve, poor fit]

Q: For `Cc1ccc(CSc2cn(CC(=O)N3CCCC3)c3ccccc23)cc1`, which Potency is on record?
A: inconclusive: 11.2 µM [inhibitor, partial curve, poor fit]

Q: For `CCn1c(=O)sc2cc(NS(=O)(=O)c3ccc(F)c(C)c3)ccc21`, which Potency is on record?
A: inconclusive: 22.4 µM [inhibitor, single point]

Q: Which Potency does the source give for `O=C(CCS(=O)(=O)c1cc(Br)cc2c1N(C(=O)C1CC1)CC2)NCc1ccc(Cl)cc1` here?
A: inconclusive: 14.1 µM [inhibitor, partial curve, poor fit]

Q: For `CN(C)c1ccc(-c2nnn(CC(=O)NCc3ccc4c(c3)OCO4)n2)cc1`, which Potency is on record?
A: inconclusive: 3.16 µM [inhibitor, single point]

Q: With `COc1ccc(-c2ccc(CN3C(CC(C)C)C(=O)N(Cc4cn(CC5CCCCC5)nn4)CCS3(=O)=O)cc2)cn1` (stereo unspecified) as the compound, how does the Potency read?
A: inconclusive: 15.8 µM [inhibitor, single point]

Q: For `CC(C)OCCCNC(=O)c1ccc2c(c1)NC(=O)c1ccccc1S2`, which Potency is on record?
A: inconclusive: 22.4 µM [inhibitor, single point]

Q: For `CCN(CC)CCCN1C=C2C(=O)C(C)(OC(=O)C3CCCC3)C(=O)C(c3ccccc3)=C2C=C1CCCC(=O)OC` (stereo unspecified), which Potency is on record?
A: inconclusive: 11.2 µM [inhibitor, single point]

Q: Which Potency does the source give for `CN(c1ccccc1)S(=O)(=O)c1nnc(NC(=O)COc2ccccc2F)s1` here?
A: inactive

Q: With `O=C(CSCc1ccccc1)NNC(=S)Nc1cccc(Cl)c1Cl` as the compound, how does the Potency read?
A: inconclusive: 35.5 µM [inhibitor, single point]

Q: For `CCOC(=O)c1ccc(N2C(=O)c3[nH]nc(-c4ccc(C)cc4)c3C2c2cccc(F)c2)cc1` (stereo unspecified), which Potency is on record?
A: inconclusive: 17.8 µM [inhibitor, partial curve, poor fit]

Q: For `Cc1ccnc2c(N3C(=O)C4C5c6ccccc6C(c6ccccc65)C4C3=O)cccc12` (stereo unspecified), which Potency is on record?
A: inconclusive: 7.08 µM [inhibitor, partial curve]

Q: For `Cc1cc(C(=O)N2CCN(c3ncccn3)CC2)c(C)o1`, which Potency is on record?
A: inactive

Q: For `Cc1ccc(N2CCN(c3ccc(NCc4nc5ccccc5n4C)cc3)CC2)cc1`, which Potency is on record?
A: inactive

Q: Which Potency does the source give for `CC(C)C(=O)NC(c1ccc([N+](=O)[O-])cc1)c1c(O)ccc2ccccc12` (stereo unspecified) here?
A: inconclusive: 12.6 µM [inhibitor, partial curve]

Q: For `Nc1c(C(=O)NCc2ccccc2)nnn1Cc1cccc(Cl)c1`, which Potency is on record?
A: inconclusive: 35.5 µM [inhibitor, single point]

Q: For `CCc1cccc(NC(=O)CN2C(=O)COc3ccc(S(=O)(=O)Nc4ccccc4)cc32)c1`, which Potency is on record?
A: inconclusive: 12.6 µM [inhibitor, partial curve, poor fit]

Q: Which Potency does the source give for `COc1ccccc1N1CCN(C(=O)c2ccc3[nH]c4c(c3c2)CCCC4)CC1` here?
A: inactive

Q: With `CC(=O)Nc1ccc(S(=O)(=O)N(CC(=O)O)Cc2ccccc2)cc1` as the compound, how does the Potency read?
A: inactive

Q: For `O=c1nccc(N/N=C/c2ccccc2O)[nH]1`, which Potency is on record?
A: inconclusive: 0.794 µM [inhibitor, full curve, poor fit]

Q: Which Potency does the source give for `O=C(/C=C\c1ccc2c(c1)OCO2)CC1(O)C(=O)Nc2ccccc21` (stereo unspecified) here?
A: inconclusive: 35.5 µM [inhibitor, single point]

Q: For `Cc1ccc(C(=O)N2c3ccc(C)cc3C(C)(c3ccccc3)CC2(C)C)cc1` (stereo unspecified), which Potency is on record?
A: inconclusive: 28.2 µM [inhibitor, single point]

Q: With `COc1ccc(C(C)=O)c(Oc2cc(NN3CCCCC3)c([N+](=O)[O-])cc2[N+](=O)[O-])c1` as the compound, how does the Potency read?
A: inactive

Q: Which Potency does the source give for `C[C@H](CO)N1C[C@H](C)[C@@H](CN(C)C(=O)CN2CCOCC2)Oc2ncc(-c3cncnc3)cc2C1=O` here?
A: inconclusive: 15.8 µM [inhibitor, single point]
